# Source: the supplement of paper PMC3334620
# Whole data set: some 33,000 sequences, median “E-score (-0.5 to 0.5)” near -0.043, cut for the highest 2% near 0.37. The list shows a part of the results.
# Target: T1, Upc2 (UniProt Q12151)
# T1 sequence: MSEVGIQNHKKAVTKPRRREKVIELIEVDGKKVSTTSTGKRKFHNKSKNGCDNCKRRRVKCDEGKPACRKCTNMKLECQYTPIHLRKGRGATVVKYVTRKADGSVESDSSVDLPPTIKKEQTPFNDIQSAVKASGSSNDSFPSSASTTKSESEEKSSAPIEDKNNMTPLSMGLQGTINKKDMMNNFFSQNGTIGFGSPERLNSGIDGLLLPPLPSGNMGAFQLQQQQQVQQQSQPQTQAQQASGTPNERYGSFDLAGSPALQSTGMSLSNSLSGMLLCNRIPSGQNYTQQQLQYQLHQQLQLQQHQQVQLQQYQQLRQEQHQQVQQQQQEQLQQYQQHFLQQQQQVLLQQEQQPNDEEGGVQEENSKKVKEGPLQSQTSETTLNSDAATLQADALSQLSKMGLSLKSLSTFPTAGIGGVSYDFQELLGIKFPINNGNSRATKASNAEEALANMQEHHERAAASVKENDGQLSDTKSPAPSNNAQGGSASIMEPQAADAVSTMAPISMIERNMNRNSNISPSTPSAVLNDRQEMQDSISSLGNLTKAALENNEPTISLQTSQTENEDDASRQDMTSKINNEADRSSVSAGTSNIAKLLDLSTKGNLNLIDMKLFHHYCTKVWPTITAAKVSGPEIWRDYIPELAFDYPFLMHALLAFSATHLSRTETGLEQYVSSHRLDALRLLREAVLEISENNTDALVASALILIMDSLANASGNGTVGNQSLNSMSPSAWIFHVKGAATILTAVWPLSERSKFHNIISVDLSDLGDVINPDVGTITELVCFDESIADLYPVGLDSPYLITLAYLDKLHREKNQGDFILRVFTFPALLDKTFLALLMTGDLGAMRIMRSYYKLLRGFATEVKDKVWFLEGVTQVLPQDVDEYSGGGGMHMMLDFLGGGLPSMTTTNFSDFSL
# Assay: PBM E-score (8-mer binding enrichment) (E-score (-0.5 to 0.5)); higher = stronger / more preferred TF binding; most listed sequences are background and not binding sites
# Conditions: protein concentration: 200 nM; construct: GST-full length
# In short: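 Detection of bound protein used fluorescent anti-GST, with scans normalised by masliner. The proteins were GST-tagged yeast transcription factors applied at about 100-200 nM to universal all-10-mer Agilent arrays made double-stranded by primer extension. Each ungapped eight-base word, pooled with its reverse complement, was scored with an E-score from the Universal PBM Analysis Suite.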
row,Sequence,PBM E-score
1,GGCATCAA,-0.121
2,CAAATAGG,-0.00549
3,CCATCACG,-0.0739
4,ACACGACC,0.154
5,GTAGTGCA,-0.0432
6,AGACTTGG,-0.0984
7,CAGTGATA,0.0531
8,AATTTAAG,0.0619
9,AATTCCAG,-0.188
10,CATCCTCA,-0.0817
11,CCATTGGG,-0.0393
12,GGCAGTAC,-0.0646
13,ATTTCAAG,-0.0738
14,AAGAGAGA,-0.115
15,GCCGGTAC,0.165
16,GTATACAA,0.234
17,GCGCATCC,0.0187
18,ACATGTCC,-0.0368
19,AAAAGCTT,-0.0712
20,CAGTACAA,-0.0317
21,GTACGGGA,0.389
22,AATCTCAC,-0.02
23,ACTGTTCT,-0.162
24,CATTAACC,0.0359
25,ATCAGTCG,0.0568

row,Sequence,PBM E-score
1,ATGAATTA,0.0203
2,CCTACGTC,-0.0661
3,AAAACCAA,0.0197
4,ATTCACTC,-0.145
5,CATTCCCG,0.0361
6,ATACTTGG,-0.221
7,GGGGAGTA,-0.293
8,AATGGGTG,-0.124
9,ATCTATGG,-0.173
10,GTGTCAAA,-0.105
11,AAAGGCCG,0.134
12,ACGAGACA,0.28
13,ATTGGCTC,-0.00635
14,CGAAGGTC,0.177
15,ATCGGGGG,-0.195
16,ACGCCCTC,0.0824
17,GAATACAA,-0.0496
18,AGCGAAAT,0.109
19,GCGAAAGA,0.0381
20,GACAAAAA,0.0813
21,CGTTGCGC,0.281
22,CTACTTTA,0.0282
23,CTCGTGTC,0.209
24,TGAGTCAA,-0.089
25,AGCCAGCA,-0.25

row,Sequence,PBM E-score
1,AACGGTAC,0.316
2,AATGATCA,-0.14
3,GCATTCGC,0.151
4,CATCTATA,0.0557
5,CCGCCCGG,-0.126
6,GAGCAGTA,0.053
7,GCCTCAGC,-0.214
8,AATTATGC,0.0912
9,CGTTAGTC,0.0726
10,ATCTCCCG,-0.163
11,ACTAGGAA,-0.242
12,CCGCCGAC,-0.176
13,ATCGAATC,-0.0848
14,GCAAATGC,-0.167
15,AATTAGGT,-0.0266
16,CGGACGTA,0.174
17,AGCGACCA,0.14
18,CTCTGAAA,-0.211
19,ATTAAGCC,-0.141
20,AAGATTCT,-0.301
21,GGATGTAC,0.186
22,GTTCACGA,0.251
23,CTCTACAG,-0.18
24,CAGTTCTA,-0.0821
25,ATGGCTAA,-0.117

row,Sequence,PBM E-score
1,ATAGCTAA,-0.155
2,AAACGCGG,0.302
3,AACAGCTC,-0.0618
4,GCGCCCCA,-0.208
5,AGGAAATG,-0.0722
6,TAAGTAAA,-0.00508
7,AACCGCCT,-0.0946
8,ACGATTAT,0.283
9,AGCAGGTG,-0.0794
10,ATATGAAG,-0.19
11,CACTAGCC,-0.0426
12,ATGTGCAA,0.0666
13,CACAAAAA,0.0697
14,AAAGTTAG,-0.0123
15,ATGTCGCC,0.00869
16,CATACCAG,-0.0446
17,GCTGGTTA,-0.0868
18,ACTGTACG,0.433
19,CAAGCCAG,-0.289
20,AGCCTATC,-0.102
21,CAAATGGA,0.0251
22,CCGTACAA,0.413
23,CGAGCCAG,0.211
24,ACACTGGT,-0.0649
25,ATAACGTG,0.0885

row,Sequence,PBM E-score
1,AATCCACC,-0.163
2,CAGTTGCG,-0.0445
3,AAGCTAAA,0.0573
4,ACAGTTTG,-0.00269
5,ATTTTGAG,-0.0806
6,CGGTCACC,-0.0331
7,AGCGGGCA,-0.116
8,GACAGAAC,0.186
9,CTGCAAGA,-0.0196
10,ATAACCAT,0.198
11,ACCCCATG,-0.211
12,GCTCCATA,-0.113
13,CGTGCTCC,-0.0314
14,ATTATCGG,0.0623
15,GGGAGTCA,-0.269
16,ACCCCGGG,-0.124
17,AGAGTCCA,-0.256
18,ATTCGGTG,0.00165
19,AAGCTACT,0.134
20,CTACCGGC,-0.38
21,ACCTTGCG,0.0287
22,CAAAGAAA,0.126
23,TTCCGGAA,-0.206
24,GACTGACA,-0.104
25,GACTCTCC,0.044

row,Sequence,PBM E-score
1,AAATCCGT,0.0321
2,AACTCCTT,-0.0745
3,GAGTCATC,-0.189
4,CTGGATGC,-0.0386
5,CCGTTGCA,-0.0404
6,ACGTGCAG,-0.053
7,CAATTGAA,0.0837
8,GTTATGAA,0.0713
9,ACCTACCG,0.00737
10,CGCTGAAG,-0.103
11,ACCTCGCG,0.218
12,CTCTTTGA,-0.197
13,ATCAATTG,0.109
14,GCCACCCA,-0.258
15,ATGAAGGA,0.021
16,ACTTACCC,-0.0385
17,CCTGATGA,-0.044
18,AAGAATCG,0.155
19,GACAACGC,-0.0893
20,ACTTCGTA,0.429
21,AGCGTCAG,-0.218
22,GTAAGCTA,0.0624
23,CAAACAAC,-0.0706
24,ATAAACCC,-0.0338
25,ACTTCTGA,-0.307

row,Sequence,PBM E-score
1,ACTACCTC,-0.189
2,CCCACACA,-0.275
3,ACGACCTG,0.366
4,TAAGCCGA,0.0915
5,AAGTGAGC,-0.0963
6,GGGGATGA,-0.254
7,ACGAGTTA,0.392
8,CCCCAAGA,-0.22
9,GCAGCTTA,-0.115
10,CGCTATTC,0.102
11,AATGCCTC,0.0552
12,CAGCCGTC,-0.154
13,ATTGTATG,-0.168
14,TAGTAACA,-0.0854
15,AAATTGTA,0.0766
16,CCTCCCAC,-0.214
17,TAATGGTA,0.144
18,TAATTGCA,0.0463
19,ATACCGCC,-0.0676
20,GTCTTGTA,-0.0824
21,ATCTGGCC,-0.231
22,GTCTAGAC,0.0278
23,CCACCCAC,-0.111
24,AGTGAGGC,-0.151
25,GCCTGCTA,-0.284

row,Sequence,PBM E-score
1,AGCACGAA,0.0491
2,CTTATGCA,-0.09
3,GTAAGTAC,0.184
4,AGGTTCTC,-0.0307
5,CTTCGGCA,0.0234
6,ACCAAATC,-0.134
7,AGATTACC,-0.0913
8,GAGACTTA,-0.12
9,AGCCATAA,0.0502
10,AGACATCC,-0.0776
11,CTCCATGA,-0.196
12,AAGCGTAA,0.186
13,TCAAACGA,0.471
14,GACATATA,0.0812
15,CATTTTAC,0.266
16,ATTCATTC,0.0864
17,AGGCCCCT,-0.211
18,TACTGCGA,0.0604
19,CACGGACA,-0.229
20,GTGTGCCA,-0.0946
21,CTGTGAGA,-0.223
22,AAGCGCTC,0.0466
23,ATTCCTAC,-0.145
24,AAGTCAAT,-0.14
25,ATTATCCG,0.176

row,Sequence,PBM E-score
1,AGTCACGA,-0.18
2,CGTTACTA,0.0805
3,CCGGAGGC,-0.239
4,CTCTCACA,-0.293
5,CGTTCTGA,0.166
6,GCAGTTCA,-0.143
7,AGAACTCG,0.0484
8,CAGGTTTC,-0.0524
9,CCGGGTTA,0.00954
10,AAGACCGA,0.0569
11,AGCGCTAT,0.0932
12,AACGTTAT,0.0892
13,ATTGCGGG,-0.134
14,CCGGATCG,-0.0403
15,ACGTAACT,0.054
16,CTCATTCC,-0.31
17,ACATACCA,-0.0855
18,GGTCGGGA,0.0566
19,CGCATGGC,-0.0423
